In ChEMBL document CHEMBL4888484, “Replenishing the malaria drug discovery pipeline: Screening and hit evaluation of the MMV Hit Generation Library 1 (HGL1) against asexual blood stage Plasmodium falciparum ,using a nano luciferase reporter read-out” (2022):
About 410 (8.5%) of roughly 4,800 compounds showed an effect of 50% or more. The list shows a part of the results.

What follows are compounds tested on Plasmodium falciparum (assay: Confirmatory screen in NF54 pLDH assay, in single point, at 2uM, 72h). Conditions: timepoint 72 hour.
Format: functional, Erythrocyte

Row | SMILES | % Inhibition
1 | Cc1nn(C)cc1-c1cc(-c2nnc(Nc3ccn(Cc4ccccc4Cl)n3)s2)no1 | 19%
2 | Brc1cnn(Cc2cnc(NC3C4CCOC4C34CCC4)s2)c1 (stereo unspecified) | 4%
3 | COc1ccnc(NCc2ccc(N3CCOCC3)cc2)n1 | 10%
4 | CCCNC(=O)Cn1nc2cc(-c3ccc(OC)cc3)nc(C)n2c1=O | -8%
5 | CC[C@@H](C(=O)Nc1cccc(C(F)(F)F)c1)n1c(C)nc2onc(C)c2c1=O | -1%
6 | COCc1nsc(N2CC(C)OC3(CCCOC3)C2)n1 (stereo unspecified) | 5%
7 | Oc1ccc(Br)cc1-c1nc2cnccn2c1NC1CCCCC1 | 15%
8 | COc1ccc(C(=O)Cn2nc(C)cc2C)cc1 | 5%
9 | CCn1cc(Cl)c(C(=O)N2CCN(C(=O)c3ccco3)CC2)n1 | -20%
10 | Brc1cncnc1N1CCC[C@H](c2nnn[nH]2)C1 | -7%
11 | C=CCC1(Nc2ccccc2)c2ccccc2-c2ccccc21 | -7%
12 | CC1(CO)CCCC1NCc1cnc(N2CCOCC2)nc1 (stereo unspecified) | 12%
13 | CCCOc1cc(=O)c(C(=O)N2CCCC2)nn1-c1ccc(C)cc1 | 0%
14 | Cn1ccc(C2=Nc3ccccc3NC(=O)C2)n1 | -4%
15 | c1ccc(-c2cn[nH]c2N2CCNCC2)cc1 | -16%
16 | Cc1ccc(S(=O)(=O)/N=[S@@](/c2ccccc2)c2ccccc2C)cc1 | -13%
17 | COc1ccc(Nc2nnc(/C=C/c3ccccc3)c(=O)n2N)cc1 | 16%
18 | CCC(=O)N1CCc2sc(S(=O)(=O)N3CCN(c4cc(C)ccc4C)CC3)cc2C1 | 38%
19 | CCNC(=O)C1Cc2ccc(OC)cc2N2CCN(c3ccc(OC)cc3)CC12 (stereo unspecified) | 4%
20 | COc1cccc(-c2cc(C(=O)Nc3ccc(F)c(Cl)c3)c3c(C)nn(C)c3n2)c1 | 4%
21 | Cc1ccc(CNC(=O)[C@@H](C)C2CCOCC2)o1 | 2%
22 | O=C(Nc1cnccn1)c1cccnc1OCC(F)F | 6%

Row | SMILES | % Inhibition
23 | CC(C)(C)OC(=O)N(c1ccc(F)cc1)S(C)(=O)=O | 10%
24 | N#CC1(C(=O)NC(C2CC2)C2CC2)CCCC1 | -18%
25 | Cc1ccnc(NC(=O)c2cc(C#N)oc2C)n1 | 1%
26 | O=C(Nc1ccc(Cn2ccnc2)cc1)c1cc2ccccc2cc1OC(F)F | -12%
27 | O=c1[nH]c2ccccc2nc1-c1cc(Br)ccc1NS(=O)(=O)c1cccc2nsnc12 | 3%
28 | COCc1cc(=O)n(CC(=O)NCc2ccccc2Cl)c(N2CCCC2)n1 | -10%
29 | CC(C)NC(=O)Cn1ccnc1CCN1C(=O)c2ccccc2C1=O | 10%
30 | COc1ccc(S(=O)(=O)N2CCN(C(=O)N(C)C)[C@@H]2c2ccccc2)cc1 | 6%
31 | Nc1ccc2c(NC3CCC(=O)NC3C3CC3)ncnc2n1 (stereo unspecified) | -16%
32 | Cc1nn(C)c(C(=O)NCCCN2CCOCC2)c1Br | -8%
33 | CCCCN(CC)C(=O)[C@@H]1CCC(=O)N(CC(C)C)[C@H]1c1cccnc1 | -20%
34 | C[C@H](NC(=O)N(Cc1ccccc1F)C1CCC1)c1cnn(C)c1 | 8%
35 | Cc1cccc(NC(=O)Nc2cc(F)c3[nH]c(=O)ccc3c2)c1 | -7%
36 | Cc1nc(N2CCC(C)CC2)ncc1-c1cc(=O)[nH]c(NCc2ccccc2)n1 | -10%
37 | Cc1cccc(C(=O)N[C@H]2CCN(c3ccccc3)C2=O)c1 | 11%
38 | CC[C@H](C)NS(=O)(=O)c1cccc(N)c1 | 2%
39 | Cc1cc(-c2nc(C3(c4ccncc4)CCC3)no2)ccn1 | 4%
40 | Cc1nn(C)c(C)c1-c1cc(C(=O)Nc2sc3c(c2C#N)CCCC3)c2ccccc2n1 | -4%
41 | Cc1ccc2c(c1)N(S(C)(=O)=O)CC[C@@H](C(=O)NC1CC1)O2 | -26%
42 | Cc1ccc(NC(=O)Nc2cccc(-c3ccc(N4CCN(C)CC4)nn3)c2)cc1C | 13%
43 | O=C1NC2(CCC2)C(=O)N1CCCCOc1ccccc1 | -7%
44 | Cc1oc2ncn(CCN3CCCC3)c(=O)c2c1C(=O)Nc1ccc(C#N)cc1 | -1%

Row | SMILES | % Inhibition
45 | CCn1c(=O)c(N2CCC(C(=O)NCCCc3ccccc3)CC2)nc2cccnc21 | -22%
46 | CO/N=C(\Nc1cc(C)ccc1C)c1nonc1N | 16%
47 | CCCn1nnnc1Cn1ncc2ccccc2c1=O | -5%
48 | Cc1cc(=O)n2ncc(C(=O)Nc3cc(F)ccc3C)c2[nH]1 | -24%
49 | O=C(c1nc(C2CC2)ncc1Br)N1CCC[C@H]1C1CCOCC1 | 8%
50 | Nc1nc(N2CCC3(CC2)OCCO3)ncc1C(=O)Nc1ccccc1 | -9%
51 | Cc1cccc(S(=O)(=O)c2cnc(N3CCC(Cc4ccccc4)CC3)nc2N)c1 | -18%
52 | CCN1CCN(c2nc(O)c3c(n2)NC(=O)C[C@H]3c2cccc(F)c2)CC1 | -7%
53 | C[C@H](NC(=O)c1ccco1)c1cc2c(cc1Br)OCCCO2 | -9%
54 | CC[n+]1c(/C=C/N(C)c2ccccc2)oc2ccc(-c3ccccc3)cc21 | 91%
55 | CC(C)(C)OC(=O)Nc1cccc(N)n1 | 8%
56 | C=CCNC(=S)NS(=O)(=O)c1ccc(Cl)cc1 | 9%
57 | CCn1nc(C)c(C(=O)Nc2sc3c(c2C(N)=O)CCC3)c1C | -15%
58 | N#Cc1c(-c2ccccc2)cc(-c2ccccc2)n(C(=O)c2ccc(F)cc2)c1=O | 9%
59 | Cc1[nH]ncc1CCCNCc1cscn1 | 9%
60 | Cc1ccccc1OCc1nc2c3c(ncn2n1)Oc1cc(O)ccc1[C@@H]3c1ccccc1 | 14%
61 | CC(=O)Nc1c(-c2ccc(C)cc2)c(C)nn1-c1ccc(C(=O)Nc2cc(C)ccn2)cc1 | 38%
62 | C[C@@H](C(=O)Nc1ccc(Br)cn1)N1C(=O)CCC1=O | -25%
63 | CCN(CC)CC(O)COc1c(Br)cc(C(C)(C)c2cc(Br)c(OCC(O)CN(CC)CC)c(Br)c2)cc1Br (stereo unspecified) | 99%
64 | Cc1ccc(C(N)C(C)S(C)(=O)=O)cc1 (stereo unspecified) | -18%
65 | CCOC(=O)c1ncn(C2CCCCC2)c1N | 10%
66 | COc1ccc(C)c2sc(N(CCCn3ccnc3)C(=O)Cc3ccc(F)cc3)nc12 | 85%

Row | SMILES | % Inhibition
67 | c1cc(-c2nnc(-c3ccncc3)s2)ccn1 | 2%
68 | Cc1ccc2c(c1)C1NC(=O)NC(C)(O2)C1C(=O)Nc1ccc(Cl)cc1 (stereo unspecified) | 7%
69 | CCCC[C@H](CC)C(=O)Nc1c(C)cccc1CC | -8%
70 | CC(C)(C)c1cccc(Oc2nn[nH]n2)c1 | 11%
71 | O=C1NC(c2ccccc2)=NC12CCN(Cc1c(F)cccc1F)CC2 | 49%
72 | CCC1=NN2C(=NC(C(=O)O)=C[C@H]2c2ccc(O)cc2)N1 | -3%
73 | NC(=O)[C@@H]1CCCN1C(=O)c1ccnc(OC2CCCCC2)c1 | -10%
74 | O=C(C[C@@H]1C=CCC1)Nc1nc(-c2ccc(Cl)cc2)cs1 | 13%
75 | CC(C)c1ccc(-c2nn3c(C4CCN(S(C)(=O)=O)CC4)nnc3s2)cc1 | -10%
76 | CC(C)c1cc(=O)[nH]c(-n2nc(C3CC3)cc2NC(=O)COc2ccc3ccccc3c2)n1 | 65%
77 | CCc1nnc(-n2nc(C)cc2C)n1N1C(n2nnc3ccccc32)CCCC1n1nnc2ccccc21 (stereo unspecified) | -5%
78 | CCOc1cc(-c2cc(-c3ccccc3O)nc3ccc4ccccc4c23)cc(Br)c1O | 92%
79 | CCn1cnnc1C1CCN([C@@H](C)C(=O)Nc2ccccc2C)CC1 | 11%
80 | CN(CC#N)C(=O)c1ccc(Br)cc1Br | -7%
81 | CC1CN(C(=O)COc2ccc3oc4ccccc4c3c2)CC(C)O1 (stereo unspecified) | 2%
82 | CN(Cc1ncnn1C)C(=O)NCC1(c2cccs2)CCCCC1 | -23%
83 | O=S(=O)(c1ccc2ccccc2c1F)N1CC(CO)C1 | -13%
84 | CN1Cc2cc(OCC3(O)CCOCC3)ccc2C1=O | -8%
85 | CC[C@](C)(NCCc1c[nH]c2ccccc12)c1nnnn1CCCN1CCOCC1 | 7%
86 | Cc1ccc(NC(=O)c2ccn(COc3ccccc3Cl)n2)nc1 | -14%
87 | COCCN(CC1CC=CCC1)C(=O)C1CCC(=O)N1 (stereo unspecified) | -4%
88 | CC(C)(C)c1ccc(NC(=O)N[C@@]2(C)CCS(=O)(=O)C2)nn1 | -7%

Row | SMILES | % Inhibition
89 | Cc1nn(-c2ccc(NC(=O)[C@@H]3CCC(=O)N3)cn2)c(C)c1Cl | -10%
90 | COc1ccc(C(=O)N2C[C@@H]3C[C@H]2C[C@@H]3NC(=O)c2ccccc2)cc1F | 9%
91 | C#CC[C@H](OC(=O)c1cccn1C)C1CC1 | -6%
92 | C[C@H](C(=O)Nc1nc2c(ccc3ccccc32)s1)C1CCOCC1 | 8%
93 | CCCC(=O)Nc1cccc(C(=O)O)c1C | -5%
94 | CN(C)c1cccc(CNc2ccc(C(F)(F)F)nn2)n1 | 1%
95 | CC(C)(C)[C@@H](O)CNC(=O)c1c(O)cccc1F | -17%
96 | CC1(C(=O)NCc2ccc(F)cc2F)CCN(C(=O)CC2CCCC2)CC1 | 4%
97 | c1ccc(Cn2ncc3cc(-c4nc(C5CC5)no4)cnc32)cc1 | -5%
98 | COc1ccc(CCNC(=O)CCCC(=O)Nc2cccnc2)cc1OC | 12%
99 | CC1(C)NC(=O)CC[C@@H]1NC1CC(c2cccc(F)c2)C1 (stereo partly specified) | 14%
100 | Cc1nn(C)cc1-c1nn(-c2nc(C3CC3)cc(C(F)(F)F)n2)c(-c2cn(C)nc2C)c1C | -9%
101 | CCCC[C@H](CC)C(=O)Nc1ccccc1C | 3%
102 | CC(C)N(C)CC1CCN(C(=O)c2cc(-c3ccccc3)c(N3CCOCC3)s2)CC1 | 1%
103 | Cc1ccccc1C(=O)NCc1nn(C2CCCC2)c2c1COCC2 | 6%
104 | CC[C@H]1Cn2c(C(=O)NC3CCCC3)cc3c(Cl)ccc(c32)O1 | -11%
105 | O=C(CCCc1nccs1)NCc1cc(Cl)cc2c1OCC2 | -6%
106 | O=C(Cc1ncc(C(F)(F)F)cc1Cl)c1ccc(Cl)c(Cl)c1 | 13%
